Laboratory results published in the BET-seq Pho4 binding data (Le et al. 2018).
Some of the results follow. Values were computed here from the reads of four pooled replicates and scatter widely.

The sequences below were run against T1, Pho4 (S. cerevisiae) (UniProt P07270) (assay: relative binding free energy (BET-seq); higher = weaker binding). Details: reference: library average.
T1 sequence: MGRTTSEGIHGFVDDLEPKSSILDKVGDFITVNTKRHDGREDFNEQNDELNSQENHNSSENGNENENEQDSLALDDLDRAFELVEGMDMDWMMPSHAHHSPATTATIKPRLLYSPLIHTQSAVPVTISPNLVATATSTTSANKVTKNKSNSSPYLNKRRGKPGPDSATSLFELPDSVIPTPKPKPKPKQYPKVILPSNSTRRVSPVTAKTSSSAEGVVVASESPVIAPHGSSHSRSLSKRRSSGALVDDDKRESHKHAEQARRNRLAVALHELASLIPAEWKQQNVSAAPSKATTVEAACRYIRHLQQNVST

Sequence | relative binding free energy [kcal/mol]
CCGTTCACGTGGGTGT | 0.07
TAGCGCACGTGGTAGG | -0.06
ATGTGCACGTGCAGGA | -0.04
AGCTTCACGTGTGGGC | 0.12
GATAGCACGTGTGCGT | 0.02
GGGGGCACGTGTAGAT | 0.14
TGGATCACGTGTTGGT | 0.22
TTTCTCACGTGCGTAT | 0.33
TAGGGCACGTGGCACG | -0.05
GGGTTCACGTGTCTAG | 0.41
GTCGTCACGTGAGTAT | 0.46
TGGTTCACGTGACGCT | 0.25
GTAAGCACGTGATTTT | 0.13
TTATGCACGTGGGGGT | -0.22
ATAGTCACGTGCGTTG | 0.02
TTGAGCACGTGTGAGC | 0.14
TTAGTCACGTGTTAGT | 0.14
GTGCGCACGTGTTGTA | -0.17
GGGTGCACGTGGAGTC | -0.1
CTCGGCACGTGGTTGG | -0.04
CTGGGCACGTGAATGG | 0.1
TGGCACACGTGTAGGG | 0.04
AAATTCACGTGTAGGA | 0.24
TAAGGCACGTGAGGTA | 0.1
TTGATCACGTGATTAT | 0.27
GTGATCACGTGCATGG | 0.16

Sequence | relative binding free energy [kcal/mol]
ATGCGCACGTGAGTTG | 0.18
ATGATCACGTGTGCGG | 0.05
TGAGGCACGTGCATGT | -0.1
GTTTGCACGTGGCGGC | -0.06
GCTGTCACGTGGGAAG | 0.1
TCGTGCACGTGGTAAA | 0.07
TGATACACGTGAGTGA | 0.11
GCAATCACGTGTTTTT | 0.18
GATATCACGTGAGGGT | 0.32
CAGGTCACGTGATATT | 0.18
ACGGGCACGTGTCGGG | -0.08
GATTTCACGTGGCGTA | 0.23
AGGCACACGTGGTGGC | -0.1
AGTTCCACGTGAGGTT | 0.22
GAGGGCACGTGCAGTG | -0.06
GTGCTCACGTGGCGTA | 0.15
AATGGCACGTGGCGGT | -0.22
ATAGTCACGTGACGGT | 0.09
TTATACACGTGGGATG | 0
GGTCACACGTGGGTTT | 0
GTGATCACGTGCTTGT | 0.07
TATGACACGTGGGGGT | -0.18
TTTTGCACGTGAGGCG | 0.33
GTTTGCACGTGTAGCC | 0.24
AGAGACACGTGATAGG | 0.1
AAGCTCACGTGTGGGG | 0.11

Sequence | relative binding free energy [kcal/mol]
TATTCCACGTGTAGGT | -0.02
CAGTGCACGTGGGGTA | -0.3
TGTAGCACGTGGGTGA | -0.16
GAATTCACGTGTAGGG | 0.33
AGTGGCACGTGGTAGA | -0.09
GCGCGCACGTGGGGGG | -0.24
TGTCACACGTGGCGTT | -0.07
CTGTCCACGTGTGTTT | 0
TTCGGCACGTGCGGAT | -0.11
TGAGGCACGTGGTCAT | -0.16
ATAGTCACGTGATTGG | 0.34
GTTTGCACGTGAGACG | 0.27
TATGACACGTGAAGTA | 0.12
TTATGCACGTGTCTAT | -0.2
AAGTTCACGTGCGCGG | 0.2
TTCGGCACGTGAAGGA | 0.31
GTTTACACGTGGCGCT | 0.17
TCCGTCACGTGGCGGG | 0.2
GTTCTCACGTGTCTGT | 0.23
CTGTCCACGTGAGTTT | 0.44
AATGACACGTGTGGAT | 0.01
CTGTACACGTGAGTTT | 0.28
GTCTGCACGTGCAGGT | 0.22
GGGATCACGTGAAGAT | 0.48
AGGCACACGTGAAGTG | 0.33
TAAATCACGTGGGTAA | -0.02

Sequence | relative binding free energy [kcal/mol]
TGACTCACGTGTGTCG | 0.23
TTAGGCACGTGCAGTG | -0.09
GCGGACACGTGGCTGG | 0.07
GCCGGCACGTGGGCGT | -0.2
TTGGACACGTGACTGT | 0.11
GTTTACACGTGGGGGT | -0.06
TGTGGCACGTGATCGG | -0.05
AAGAGCACGTGTGGGC | -0.06
TTTGACACGTGGATTC | 0.07
GCTGTCACGTGGTTGT | 0.11
GTTATCACGTGCTGAG | 0.2
TTTGGCACGTGGATAC | -0.11
TAGAGCACGTGAAGGA | 0.12
GTGATCACGTGTTGGT | 0.15
GGCGACACGTGGGTAT | -0.09
TGATCCACGTGGGATG | -0.07
GGCGGCACGTGTCAGG | -0.14
GGAGTCACGTGTTTCT | 0.16
ATCATCACGTGTGTTA | 0
ATTAGCACGTGTTAGA | -0.11
TAGAGCACGTGTGATA | -0.09
AATTTCACGTGGGGGC | 0.16
ACGTACACGTGTGAGG | 0.11
GGCTTCACGTGGGTTG | 0.16
TTGTACACGTGTGTTG | 0.12
TAGGACACGTGGTCTG | -0.07

Sequence | relative binding free energy [kcal/mol]
TTCAGCACGTGGATTT | -0.1
TCGGTCACGTGGTCAG | 0.08
AGTAGCACGTGGGATG | -0.17
CGTTACACGTGGGGAT | -0.16
TGGGGCACGTGATGAC | 0.16
GGGGGCACGTGGCTGC | -0.05
GTTGACACGTGTGTGG | 0.11
TTTATCACGTGTTTAA | 0.23
TGTTTCACGTGTAGCC | 0.37
TTAATCACGTGAATTG | 0.27
TTACGCACGTGAGGGA | 0.17
TGTATCACGTGATTCA | 0.24
TGGGTCACGTGTAGCG | 0.13
CGGGTCACGTGTAAAT | 0.21
ATTGGCACGTGGGATC | -0.24
CGGGTCACGTGAGTAG | 0
GGGTTCACGTGTAGAT | 0.44
TTGGACACGTGCGGCT | -0.07
CGGTCCACGTGTTTGT | -0.04
TGTTACACGTGTTTCC | 0.16
TGTGGCACGTGGCTCA | -0.07
CTCAACACGTGGGGGT | -0.01
AGGTTCACGTGCGATG | 0.13
TCGTGCACGTGGGTAT | -0.07
TTATTCACGTGGGCAG | 0.11
CTGTTCACGTGTGGGA | 0.16

Sequence | relative binding free energy [kcal/mol]
GTGAGCACGTGCGTGA | -0.23
ATGATCACGTGTGCTT | 0.13
GATTGCACGTGGGGCG | 0.03
TACGTCACGTGAAAGT | 0.31
TCTGTCACGTGTTGCT | 0.27
CGTGGCACGTGGCTAG | -0.17
AGAGACACGTGTAGGT | 0.13
TGGGTCACGTGGCGCA | -0.07
GGTACCACGTGAGTTG | 0.22
AGTTGCACGTGTGTTC | 0.05
TAATTCACGTGCGATT | 0.16
TTGTACACGTGATTGT | 0.25
CGGTCCACGTGGGTTT | -0.06
TCGGCCACGTGGGGTA | -0.27
GTTAACACGTGAGGCG | 0.28
AGGTGCACGTGATATT | 0
TTAGACACGTGGTGGT | -0.11
TGGGGCACGTGTCGAA | -0.09
TCGAGCACGTGTTATT | -0.02
GTTGACACGTGATTTC | 0.33
TTTCGCACGTGCCGGG | -0.04
ATTTACACGTGGGGGC | -0.03
GTTCGCACGTGTGTAA | 0.06
ATGTACACGTGCTTGT | -0.14
TAGGGCACGTGCAGGA | -0.23
GGTTTCACGTGTGCCG | 0.31

Sequence | relative binding free energy [kcal/mol]
TTTTACACGTGAGTCT | 0.33
ATGGGCACGTGGCAGC | -0.2
CGGATCACGTGTATGT | 0.24
CCGTGCACGTGGTGGA | -0.07
GGCGGCACGTGTGCGC | 0.07
CATATCACGTGTTGGG | 0.14
CGTGACACGTGTCGTG | 0
CTATGCACGTGTTTTA | -0.08
TTCGTCACGTGTGGTC | 0.11
GTGGGCACGTGGTTGC | -0.09
AGGGTCACGTGTAAGT | 0.05
CAGGGCACGTGGTAGC | -0.23
GTCAACACGTGGTATT | 0.19
TAATTCACGTGAATTA | 0.36
TGTGTCACGTGGTCCG | 0.09
CGGAACACGTGTTAGT | 0.23
GATGTCACGTGTTCAG | 0.2
GTTTGCACGTGTTCTG | 0.11
TGTATCACGTGAAATG | 0.33
TTCGGCACGTGGGCGA | -0.18
CGAGACACGTGTGTTT | 0.19
AGAGGCACGTGGTTCG | -0.34
GCGGTCACGTGTGATG | 0.09
CGGGTCACGTGGAGGG | 0.11
AGGATCACGTGTCGGC | 0.23
GACTGCACGTGGGGCT | -0.05

Sequence | relative binding free energy [kcal/mol]
GATGTCACGTGAAATG | 0.28
TGATGCACGTGATGTA | -0.02
GGATGCACGTGGAAGA | 0.21
ATATGCACGTGTATGA | -0.11
GGGAACACGTGTCATT | 0.26
TATGTCACGTGTGATT | 0.15
AGTAGCACGTGAGGGT | 0.2
GGTAACACGTGTAGTG | 0.15
AGAAACACGTGATGTG | 0.2
GTGTGCACGTGTAACG | 0.04
GGAGGCACGTGGGAAA | -0.12
TGGGGCACGTGTTTTA | -0.01
TAAAACACGTGGTTGG | -0.1
ATTTGCACGTGAGTGT | 0.2
TTTATCACGTGAAGTT | 0.23
GAGATCACGTGGGTGA | 0.2
TTAGTCACGTGCTTTG | -0.03
AGTTTCACGTGGTCGC | 0.25
AATTTCACGTGGACTT | 0.25
ATAGCCACGTGGTGGT | -0.31
TTGAGCACGTGGCGTA | -0.32
GGTTACACGTGTGCAG | 0.13
TCGGTCACGTGTGAGA | 0.06
ATTGCCACGTGGGATT | -0.02
TATTTCACGTGTTATA | 0.2
TGGAGCACGTGAGCAT | 0.14

Sequence | relative binding free energy [kcal/mol]
TTATCCACGTGTGGTT | -0.05
TAAGGCACGTGTTTAA | -0.08
GTGTGCACGTGGGGAT | -0.13
GGTGTCACGTGATTTT | 0.25
TCGGTCACGTGATTGA | 0.38
AGGCACACGTGGAGTT | 0.18
ATTCTCACGTGGAGGT | 0.22
CAGTTCACGTGGTGAG | 0.16
AATAGCACGTGATTGT | 0.05
ATTTGCACGTGGGTGC | -0.25
TTGTACACGTGTAAGT | 0.25
GGTTTCACGTGGCACG | 0.1
ACCGGCACGTGGTTGT | -0.16
ATTGCCACGTGGCTTG | -0.11
TCTGTCACGTGGAGAT | 0.09
TGGGCCACGTGCATGG | -0.24
GTGGACACGTGGAAGT | 0.18
GGTGGCACGTGAGAAT | 0.16
TGTCGCACGTGTATGG | -0.1
TAATGCACGTGAAGCG | 0.35
AGGCTCACGTGGCTGG | 0.23
TTCTGCACGTGGGGGT | -0.07
